Measured values taken from paper PMC7368075.
Results are given in words; binding and its absence hold for the method and conditions named. In cells and extracts the contact can be indirect. Some entries that bind do so weakly or less than the wild type. For some assays here: Where a sequence is shown, tags or fusion partners need not be part of it. Values belong to the binder of their own block, whether it stands above or below them.

Chains of the proteins cited; added tags and fusions are not shown.
UniProt Q9H792: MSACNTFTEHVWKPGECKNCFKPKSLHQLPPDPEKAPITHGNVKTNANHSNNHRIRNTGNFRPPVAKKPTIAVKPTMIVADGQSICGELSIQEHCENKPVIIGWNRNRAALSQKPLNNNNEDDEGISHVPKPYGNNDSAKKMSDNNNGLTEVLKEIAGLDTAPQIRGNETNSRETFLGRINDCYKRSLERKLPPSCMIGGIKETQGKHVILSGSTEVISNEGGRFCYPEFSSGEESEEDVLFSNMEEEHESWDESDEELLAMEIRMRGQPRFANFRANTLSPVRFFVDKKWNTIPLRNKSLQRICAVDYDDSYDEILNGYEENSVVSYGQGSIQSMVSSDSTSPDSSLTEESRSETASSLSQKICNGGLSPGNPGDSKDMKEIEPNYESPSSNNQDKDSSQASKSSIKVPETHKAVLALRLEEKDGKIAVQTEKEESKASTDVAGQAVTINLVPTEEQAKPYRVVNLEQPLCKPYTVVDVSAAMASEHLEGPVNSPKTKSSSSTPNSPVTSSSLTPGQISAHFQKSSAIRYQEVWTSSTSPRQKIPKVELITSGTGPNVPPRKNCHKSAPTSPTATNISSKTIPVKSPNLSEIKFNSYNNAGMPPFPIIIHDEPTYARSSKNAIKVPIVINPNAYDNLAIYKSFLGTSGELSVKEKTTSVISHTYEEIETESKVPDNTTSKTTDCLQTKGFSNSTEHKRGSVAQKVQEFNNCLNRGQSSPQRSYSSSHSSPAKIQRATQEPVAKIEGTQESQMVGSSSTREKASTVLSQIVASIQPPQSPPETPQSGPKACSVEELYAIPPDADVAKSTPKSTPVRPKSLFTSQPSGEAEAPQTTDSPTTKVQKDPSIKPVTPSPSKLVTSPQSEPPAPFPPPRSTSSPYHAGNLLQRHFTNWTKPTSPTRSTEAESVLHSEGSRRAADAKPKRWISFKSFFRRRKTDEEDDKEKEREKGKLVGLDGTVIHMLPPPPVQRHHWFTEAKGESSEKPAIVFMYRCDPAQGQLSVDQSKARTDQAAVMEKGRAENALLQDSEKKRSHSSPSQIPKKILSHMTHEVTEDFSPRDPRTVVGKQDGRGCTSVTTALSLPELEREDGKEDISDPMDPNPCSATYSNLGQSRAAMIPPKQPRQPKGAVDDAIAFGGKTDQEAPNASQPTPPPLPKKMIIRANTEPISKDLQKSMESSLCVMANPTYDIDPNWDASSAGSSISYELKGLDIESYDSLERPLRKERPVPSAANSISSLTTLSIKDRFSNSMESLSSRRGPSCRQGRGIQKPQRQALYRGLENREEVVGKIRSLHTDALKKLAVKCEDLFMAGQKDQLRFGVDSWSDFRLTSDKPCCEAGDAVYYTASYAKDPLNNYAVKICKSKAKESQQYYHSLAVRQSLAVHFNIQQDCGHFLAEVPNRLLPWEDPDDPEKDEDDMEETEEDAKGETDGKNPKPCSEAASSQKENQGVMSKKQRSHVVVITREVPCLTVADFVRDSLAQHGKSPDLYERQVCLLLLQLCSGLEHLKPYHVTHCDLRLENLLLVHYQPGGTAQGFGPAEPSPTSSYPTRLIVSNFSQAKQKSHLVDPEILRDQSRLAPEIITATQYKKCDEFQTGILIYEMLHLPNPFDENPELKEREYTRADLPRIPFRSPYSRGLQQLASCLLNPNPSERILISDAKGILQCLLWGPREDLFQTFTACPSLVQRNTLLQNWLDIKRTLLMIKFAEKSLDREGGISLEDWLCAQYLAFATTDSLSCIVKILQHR
UniProt Q05397: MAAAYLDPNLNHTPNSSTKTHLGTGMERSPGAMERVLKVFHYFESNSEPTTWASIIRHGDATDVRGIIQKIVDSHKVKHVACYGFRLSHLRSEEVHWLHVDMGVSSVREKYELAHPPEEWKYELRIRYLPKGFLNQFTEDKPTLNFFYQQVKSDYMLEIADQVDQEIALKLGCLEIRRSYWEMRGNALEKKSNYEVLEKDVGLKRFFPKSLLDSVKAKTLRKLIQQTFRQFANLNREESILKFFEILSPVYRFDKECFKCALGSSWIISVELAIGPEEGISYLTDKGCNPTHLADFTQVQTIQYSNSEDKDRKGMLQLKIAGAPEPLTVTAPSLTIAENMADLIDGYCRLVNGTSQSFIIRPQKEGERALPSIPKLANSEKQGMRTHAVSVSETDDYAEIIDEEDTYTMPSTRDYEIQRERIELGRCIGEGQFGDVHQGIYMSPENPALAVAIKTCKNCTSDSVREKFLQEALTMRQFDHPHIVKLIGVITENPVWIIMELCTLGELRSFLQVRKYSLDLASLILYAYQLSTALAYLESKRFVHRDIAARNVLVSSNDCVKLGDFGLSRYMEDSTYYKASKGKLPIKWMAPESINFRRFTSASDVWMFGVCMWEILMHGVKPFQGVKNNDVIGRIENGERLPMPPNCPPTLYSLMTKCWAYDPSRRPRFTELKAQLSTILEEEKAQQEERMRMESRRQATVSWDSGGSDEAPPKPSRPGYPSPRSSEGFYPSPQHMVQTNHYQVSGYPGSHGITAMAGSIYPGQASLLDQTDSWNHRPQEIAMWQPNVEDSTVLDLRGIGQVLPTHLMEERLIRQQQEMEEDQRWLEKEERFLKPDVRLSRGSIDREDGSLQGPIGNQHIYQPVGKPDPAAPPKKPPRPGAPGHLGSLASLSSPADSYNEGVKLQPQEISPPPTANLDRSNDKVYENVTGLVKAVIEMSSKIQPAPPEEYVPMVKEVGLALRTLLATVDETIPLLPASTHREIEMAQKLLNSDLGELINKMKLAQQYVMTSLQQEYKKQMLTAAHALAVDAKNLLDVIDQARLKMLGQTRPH

Assays:
Myc-PEAK1 (human) = Myc-PEAK1 (human) (UniProt Q9H792); experiment: co-IP; lysates of 293T cells expressing the indicated plasmids (with or without AXL WT or kinase dead in Fig. 6g); anti-Myc immunoprecipitation, western blot
HA-FAK = HA-FAK (UniProt Q05397); experiment: co-IP; lysates of 293T cells expressing the indicated plasmids (with AXL WT or kinase dead); anti-HA FAK immunoprecipitation, western blot

binding (Myc-PEAK1 (human)): binds
B1: mouse AXL-WT (receptor, UniProt Q00993 19-888)
chain: AHKDTQTEAGSPFVGNPGNITGARGLTGTLRCELQVQGEPPEVVWLRDGQILELADNTQTQVPLGEDWQDEWKVVSQLRISALQLSDAGEYQCMVHLEGRTFVSQPGFVGLEGLPYFLEEPEDKAVPANTPFNLSCQAQGPPEPVTLLWLQDAVPLAPVTGHSSQHSLQTPGLNKTSSFSCEAHNAKGVTTSRTATITVLPQRPHHLHVVSRQPTELEVAWTPGLSGIYPLTHCNLQAVLSDDGVGIWLGKSDPPEDPLTLQVSVPPHQLRLEKLLPHTPYHIRISCSSSQGPSPWTHWLPVETTEGVPLGPPENVSAMRNGSQVLVRWQEPRVPLQGTLLGYRLAYRGQDTPEVLMDIGLTREVTLELRGDRPVANLTVSVTAYTSAGDGPWSLPVPLEPWRPGQGQPLHHLVSEPPPRAFSWPWWYVLLGALVAAACVLILALFLVHRRKKETRYGEVFEPTVERGELVVRYRVRKSYSRRTTEATLNSLGISEELKEKLRDVMVDRHKVALGKTLGEGEFGAVMEGQLNQDDSILKVAVKTMKIAICTRSELEDFLSEAVCMKEFDHPNVMRLIGVCFQGSDREGFPEPVVILPFMKHGDLHSFLLYSRLGDQPVFLPTQMLVKFMADIASGMEYLSTKRFIHRDLAARNCMLNENMSVCVADFGLSKKIYNGDYYRQGRIAKMPVKWIAIESLADRVYTSKSDVWSFGVTMWEIATRGQTPYPGVENSEIYDYLRQGNRLKQPVDCLDGLYALMSRCWELNPRDRPSFAELREDLENTLKALPPAQEPDEILYVNMDEGGSHLEPRGAAGGADPPTQPDPKDSCSCLTAADVHSAGRYVLCPSTAPGPTLSADRGCPAPPGQEDGA

binding (HA-FAK): binds
B2: NEDD9 expressed in 293T cells (co-immunoprecipitation with HA-FAK) (protein, UniProt Q14511 1-834)
chain: MKYKNLMARALYDNVPECAEELAFRKGDILTVIEQNTGGLEGWWLCSLHGRQGIVPGNRVKLLIGPMQETASSHEQPASGLMQQTFGQQKLYQVPNPQAAPRDTIYQVPPSYQNQGIYQVPTGHGTQEQEVYQVPPSVQRSIGGTSGPHVGKKVITPVRTGHGYVYEYPSRYQKDVYDIPPSHTTQGVYDIPPSSAKGPVFSVPVGEIKPQGVYDIPPTKGVYAIPPSACRDEAGLREKDYDFPPPMRQAGRPDLRPEGVYDIPPTCTKPAGKDLHVKYNCDIPGAAEPVARRHQSLSPNHPPPQLGQSVGSQNDAYDVPRGVQFLEPPAETSEKANPQERDGVYDVPLHNPPDAKGSRDLVDGINRLSFSSTGSTRSNMSTSSTSSKESSLSASPAQDKRLFLDPDTAIERLQRLQQALEMGVSSLMALVTTDWRCYGYMERHINEIRTAVDKVELFLKEYLHFVKGAVANAACLPELILHNKMKRELQRVEDSHQILSQTSHDLNECSWSLNILAINKPQNKCDDLDRFVMVAKTVPDDAKQLTTTINTNAEALFRPGPGSLHLKNGPESIMNSTEYPHGGSQGQLLHPGDHKAQAHNKALPPGLSKEQAPDCSSSDGSERSWMDDYDYVHLQGKEEFERQQKELLEKENIMKQNKMQLEHHQLSQFQLLEQEITKPVENDISKWKPSQSLPTTNSGVSAQDRQLLCFYYDQCETHFISLLNAIDALFSCVSSAQPPRIFVAHSKFVILSAHKLVFIGDTLTRQVTAQDIRNKVMNSSNQLCEQLKTIVMATKMAALHYPSTTALQEMVHQVTDLSRNAQLFKRSLLEMATF
